Measurements: the supplement of paper PMC12217912
The list shows a part of the results. Sequences were assembled here from the parent chain. Values near 0.05 are background.

B1: TEV protease; numbered along this chain (parent)
chain: MGESLFKGPRDYNPISSSICHLTNESDGHTTSLYGIGFGPFIITNKHLFRRNNGTLVVQSLHGVFKVKDTTTLQQHLVDGRDMIIIRMPKDFPPFPQKLKFREPQREERICLVTTNFQTKSMSSMVSDTSCTFPSGDGIFWKHWIQTKDGQCGSPLVSTRDGFIVGIHSASNFTNTNNYFTSVPKNFMELLTNQEAQQWVSGWRLNADSVLWGGHKVFMVKPEEPFQPVKEATQL

Variants of: B1
Assay: raw area under fraction-flipped curve 0-4 h after induction (AUC4h, not background-subtracted), DNA-recorder readout of cleavage of the substrate (dimensionless); higher = more cleavage of the substrate by the protease variant
Settings: temperature: 34 °C; time window: 0-4 h after rhamnose induction
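Also: Bxb1 expression induced with 0.2% (w/v) L-rhamnose at OD600 near 0.5, cultures sampled hourly, flipped fraction per protease–substrate barcode pair counted by paired-end Illumina sequencing.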

What does the source list for MGESLFKGPRDYNPISSSICHLTNESDGHTTSLYGIGFGPFIITNKHLFRRNNGTLVVQSLHGVFKVKDTTTLQQHLVDGRDMIIIRMPKDFPPFPQKLKFREPQREERICLVTTNFQTKSMSSMVSMTSCTFPSGDGIFWKHWIQTKDGQCGSPLVSTRDGFIVGIHSASNFTNTNNYFTSVPKNFMELLTNQEAQQWVSGWRLNADSVLWGGHKVFMVKPEEPFQPVKEATQL [D128M]?
area with substrate ENLEFQS: 0.0659; area with substrate ENLFFQS: 0.117; area with substrate ENLGFQS: 0.0774; area with substrate ENLHFQS: 0.0847; area with substrate ENLIFQS: 0.144; area with substrate ENLKFQS: 0.121; area with substrate ENLLFQS: 0.159; area with substrate ENLMFQS: 0.126; area with substrate ENLNFQS: 0.0633; area with substrate ENLPFQS: 0.0596; area with substrate ENLQFQS: 0.1; area with substrate ENLRFQS: 0.109; area with substrate ENLSFQS: 0.0925; area with substrate ENLVFQS: 0.16; area with substrate ENLWFQS: 0.082

For MGESLFKGPRDYNPISSSICHLTNESDGHTTSLYGIGFGPFIITNKHLFRRNNGTLVVQSLHGVFKVKDTTTLQQHLVDTRDMIIIRMPKDFPPFPQKLKFREPQREERICLVTTNFQTKSMSSMVSDTSCTFPSGDGIFWKHWIQTKDGQCGSPLVSTRDGFIVGIHSASNFTNTNNYFTSVPKNFMELLTNQEAQQWVSGWRLNADSVLWGGHKVFMVKPEEPFQPVKEATQL [G80T], which “area with substrate ENLEFQS” value is on record?
Its value is 0.0566.

And the “area with substrate ENLFFQS” value?
The value was 0.0767.

And the “area with substrate ENLGFQS” value?
Its value is 0.0526.

What about the “area with substrate ENLHFQS” value of the same variant?
Its value is 0.0482.

What about the “area with substrate ENLKFQS” value of the same variant?
The value was 0.077.

And the “area with substrate ENLLFQS” value?
The value was 0.0666.

What about the “area with substrate ENLMFQS” value of the same variant?
The value was 0.0622.

And the “area with substrate ENLNFQS” value?
The value was 0.0619.

What about the “area with substrate ENLPFQS” value of the same variant?
Its value is 0.0636.

What about the “area with substrate ENLQFQS” value of the same variant?
The value was 0.0597.

What about the “area with substrate ENLRFQS” value of the same variant?
The value was 0.0632.

And the “area with substrate ENLSFQS” value?
Its value is 0.0525.

And the “area with substrate ENLVFQS” value?
Its value is 0.0826.

What about the “area with substrate ENLWFQS” value of the same variant?
The value was 0.0527.

Which “area with substrate ENLEFQS” value does the source give for MGESLFKGPRDYNPISSSICHLTNESDGHTTSLYGIGFGPFIITNKHLFRRNNGTLVVQSLHGVFKVKDTTTLQQHLVDGRDMIIIRMPKDFPPFPQKLKFREPQREERICLVTTNFQTKSMSSMVSDTSCTFPSGDGIFWKHWIQTKDGQCGSPLVSTRDGFIVGIHSASNFTNVNNYFTSVPKNFMELLTNQEAQQWVSGWRLNADSVLWGGHKVFMVKPEEPFQPVKEATQL [T176V] here?
The value was 0.0716.

And the “area with substrate ENLIFQS” value?
The value was 0.121.

And the “area with substrate ENLKFQS” value?
Its value is 0.0563.

And the “area with substrate ENLLFQS” value?
The value was 0.0585.

What about the “area with substrate ENLPFQS” value of the same variant?
Its value is 0.0659.

What about the “area with substrate ENLRFQS” value of the same variant?
The value was 0.0581.

Which results are given for MGESLFKGPRDYNPISSSICHLTNESDGHTTSLYGIGFGPFIITNKHLFRRNNGTLVVQSLHGVFKVKDTTTLQQHLVDGRDMIIIRMPKDFPPFPQKLKFREPQREERICLVTTNFQTKSMSSMVSDTSCTFPSGDGIFWKHWIQTKDGQCGSPLVSTRDGFIVGIGSASNFTNTNNYFTSVPKNFMELLTNQEAQQWVSGWRLNADSVLWGGHKVFMVKPEEPFQPVKEATQL [H168G]?
area with substrate ENLFFQS: 0.0104; area with substrate ENLHFQS: 0.0641; area with substrate ENLNFQS: 0.0694; area with substrate ENLSFQS: 0.0727; area with substrate ENLVFQS: 0.0638; area with substrate ENLWFQS: 0.0704

Which results are given for MGESLFKGPRDYNPISSSICHLTNESDGHTTSLYGIGFGPFIITNKHLFRRNNGTLVVQSLHGVFKVKDTTTLQQHLVDGRDMIIIRMPKDFPPFPQKLKFREPQREERICLVTTNFQTKSMSSMVSDTSCTFPSGDGIFWKHWIQTKDGQCGSPLVSTRDGFIVGIHSASNFTNTNNYFTSVPKNFMELLTNQEAQQWASGWRLNADSVLWGGHKVFMVKPEEPFQPVKEATQL [V200A]?
area with substrate ENLFFQS: 0.0591; area with substrate ENLRFQS: 0.077

Which results are given for MGESLFKFPRDYNPISSSICHLTNESDGHTTSLYGIGFGPFIITNKHLFRRNNGTLVVQSLHGVFKVKDTTTLQQHLVDGRDMIIIRMPKDFPPFPQKLKFREPQREERICLVTTNFQTKSMSSMVSDTSCTFPSGDGIFWKHWIQTKDGQCGSPLVSTRDGFIVGIHSASNFTNTNNYFTSVPKNFMELLTNQEAQQWVSGWRLNADSVLWGGHKVFMVKPEEPFQPVKEATQL [G8F]?
area with substrate ENLFFQS: 0.169; area with substrate ENLGFQS: 0.0561; area with substrate ENLIFQS: 0.0787; area with substrate ENLKFQS: 0.0898; area with substrate ENLLFQS: 0.0583; area with substrate ENLNFQS: 0.0618; area with substrate ENLPFQS: 0.0545; area with substrate ENLQFQS: 0.0755; area with substrate ENLVFQS: 0.0835

What does the source list for MGESLFKGPRDYNPISSSICHLTNESDGHTTSLYGIGFGPFIITNKHLFRRNNGTLVVQSLHGVFKVKDTTTLQQHLVDGRDMIIIRMPKDFPPFPQKLKFREPQREERICLVTTNFQTKSMSSMVSDTSCTFPSGDGIFWKHWIQTKDGQCGSPLVSTRDGFIVGIHSASNFTNTNNYFTSVPKNFMELLTNQEAQQWVSGWRLNADSVLWGGHKVFMVKPEEPFQPVKEKTQL [A232K]?
area with substrate ENLFFQS: 0.119; area with substrate ENLHFQS: 0.0548; area with substrate ENLKFQS: 0.083; area with substrate ENLMFQS: 0.0758; area with substrate ENLNFQS: 0.0478; area with substrate ENLPFQS: 0.0612; area with substrate ENLQFQS: 0.0869; area with substrate ENLRFQS: 0.0762; area with substrate ENLSFQS: 0.0474

For MGESLFKGPRDYNPISSSICHLTNESDGHTTSLYGIGFGPFIITNKHLFRRNNGTLVVQSLHGVFKVKDTTTLQQHLVDGRDMIIIRMPKDFPPFPQKLKFREPQREERICLVTTNFQTKSMSSMVSDTSCTFPSGDGIFWKHWIQTKDGQCGSPLVSTRDGFIVGIHSASNFTNFNNYFTSVPKNFMELLTNQEAQQWVSGWRLNADSVLWGGHKVFMVKPEEPFQPVKEATQL [T176F], which “area with substrate ENLFFQS” value is on record?
The value was 0.0682.

What about the “area with substrate ENLIFQS” value of the same variant?
Its value is 0.0644.

And the “area with substrate ENLMFQS” value?
The value was 0.0671.

And the “area with substrate ENLNFQS” value?
The value was 0.0789.

What about the “area with substrate ENLSFQS” value of the same variant?
Its value is 0.0617.

What about the “area with substrate ENLVFQS” value of the same variant?
Its value is 0.0543.

Which “area with substrate ENLFFQS” value does the source give for MGESLFKGPRDYNPISSSICHLTNESDGHTTSLYGIGFGPFIITNKHLFRRNNGTLVVQSLHGVFKVKDTTTLQQHLVDGRDMIIIRCPKDFPPFPQKLKFREPQREERICLVTTNFQTKSMSSMVSDTSCTFPSGDGIFWKHWIQTKDGQCGSPLVSTRDGFIVGIHSASNFTNTNNYFTSVPKNFMELLTNQEAQQWVSGWRLNADSVLWGGHKVFMVKPEEPFQPVKEATQL [M88C] here?
The value was 0.0701.

What about the “area with substrate ENLGFQS” value of the same variant?
Its value is 0.0574.

What about the “area with substrate ENLHFQS” value of the same variant?
The value was 0.0871.

What about the “area with substrate ENLPFQS” value of the same variant?
The value was 0.0618.

And the “area with substrate ENLQFQS” value?
Its value is 0.0924.

What about the “area with substrate ENLTFQS” value of the same variant?
Its value is 0.0576.

And the “area with substrate ENLWFQS” value?
The value was 0.0552.

For MGESLFKGPRDYNPISSSICHLTNESDGHTTSLYGIGFGPFIITNKHLFRRNNGTLVVQSLHGVFKVKDTTTLQQHLVDGRDMIIIRMPKDFPPFPQKLKFREPQREERICLVTTNFQTKSMSSMVSDTSCTFPSGDGIFWKHWIQTKDGQCGSPLVSTRDGFIVGIHSASNFTNTNNYFTSVPKNFMELLTNQEAQQWSSGWRLNADSVLWGGHKVFMVKPEEPFQPVKEATQL [V200S], which “area with substrate ENLIFQS” value is on record?
Its value is 0.065.

Which “area with substrate ENLIFQS” value does the source give for MGESLFKGPRDYNPISSSICHLTNESDGHTTSLYGIGFGPFIITNKHLFRRNNGTLVVQSLHGVFKVKDTTTLQQHLVDGRDMIIIRHPKDFPPFPQKLKFREPQREERICLVTTNFQTKSMSSMVSDTSCTFPSGDGIFWKHWIQTKDGQCGSPLVSTRDGFIVGIHSASNFTNTNNYFTSVPKNFMELLTNQEAQQWVSGWRLNADSVLWGGHKVFMVKPEEPFQPVKEATQL [M88H] here?
Its value is 0.0568.

And the “area with substrate ENLLFQS” value?
Its value is 0.0586.

And the “area with substrate ENLQFQS” value?
The value was 0.0304.

What about the “area with substrate ENLRFQS” value of the same variant?
The value was 0.0702.

What about the “area with substrate ENLWFQS” value of the same variant?
The value was 0.0443.

Which “area with substrate ENLKFQS” value does the source give for MGESLFKGPRDYNPISSSICHLTNESDGHTTSLYGIGFGPFIITNKHLFRRNNGTLVVQSLHGVFKVKDTTTLQQHLVDGRDMIIIRMPKDFPPFPQKLKFREPQREERICLVTTNFQTKSMSSMVSDTSCTFPSGDGIFWKHWIQTKDGQCGSPLVSTRDGFIVGIHSASNFTNTNNYFTSVPKNFMELLWNQEAQQWVSGWRLNADSVLWGGHKVFMVKPEEPFQPVKEATQL [T192W] here?
The value was 0.103.
